The source gives many values for each of these; only a part stands here.
Experiment: Biodistribution of 67Ga complexes in mice
Type: in vivo, balb/c mice
Procedure: To ligand (50 μL, 10 mg/mL, 0.2 M NaOAc, […]) was added ^67 Ga citrate (18.5 MBq) and the resultant mixture diluted to 1 mL (0.2 M NaOAc, pH 7). The pH was adjusted to 12 with 1 M NaOH (20 μL) and heated at 40° C. for 40 min. The final volume was adjusted (to 5 mL) with saline and sterilised by filtering through a 0.22 μm filter.
Each animal was injected via tail vein with ^67 Ga complex (100 μL, ~3.7×10^5 Bq). Animals were sacrificed at various time intervals (5 animals per time point/6 time points). Data are illustrated in FIG. 26-30 and in Tables 13-17.
Each ^67 Ga-ligand complex has been evaluated in balb/c mice. […] (see FIG. 26-30).

O=C(O)CN(CCN(CC(=O)O)CC(=O)Nc1ccccc1O)CC(=O)Nc1ccccc1O [Compound 1]
biodistribution bladder (1 min): 0.08 % ID | biodistribution blood (1 min): 16.86 % ID | biodistribution caecum (1 min): 0.45 % ID | biodistribution colon (1 min): 0.53 % ID | biodistribution duodenum (1 min): 0.12 % ID | biodistribution heart (1 min): 0.41 % ID | biodistribution ileum (1 min): 0.25 % ID | biodistribution jejunum (1 min): 1.27 % ID | biodistribution lungs (1 min): 1.28 % ID | biodistribution ovaries (1 min): 0.07 % ID | biodistribution pancreas (1 min): 0.35 % ID | biodistribution salivary gl (1 min): 0.16 % ID | biodistribution stomach GL (1 min): 0.36 % ID | biodistribution stomach SQ (1 min): 0.08 % ID | biodistribution tail (1 min): 1.13 % ID | biodistribution bladder (3 min): 0.11 % ID | biodistribution blood (3 min): 9.81 % ID | biodistribution caecum (3 min): 0.26 % ID | biodistribution colon (3 min): 0.43 % ID | biodistribution duodenum (3 min): 0.09 % ID | biodistribution heart (3 min): 0.19 % ID | biodistribution ileum (3 min): 0.13 % ID | biodistribution jejunum (3 min): 0.69 % ID | biodistribution lungs (3 min): 0.83 % ID | biodistribution ovaries (3 min): 0.06 % ID | biodistribution pancreas (3 min): 0.16 % ID | biodistribution salivary gl (3 min): 0.11 % ID | biodistribution stomach GL (3 min): 0.19 % ID | biodistribution stomach SQ (3 min): 0.08 % ID | biodistribution tail (3 min): 1.50 % ID | biodistribution bladder (5 min): 0.09 % ID | biodistribution blood (5 min): 7.82 % ID | biodistribution caecum (5 min): 0.22 % ID | biodistribution colon (5 min): 0.37 % ID | biodistribution duodenum (5 min): 0.17 % ID | biodistribution heart (5 min): 0.15 % ID | biodistribution ileum (5 min): 0.11 % ID | biodistribution jejunum (5 min): 0.73 % ID | biodistribution lungs (5 min): 1.11 % ID | biodistribution ovaries (5 min): 0.07 % ID | biodistribution pancreas (5 min): 0.11 % ID | biodistribution salivary gl (5 min): 0.10 % ID | biodistribution stomach GL (5 min): 0.21 % ID | biodistribution stomach SQ (5 min): 0.11 % ID | biodistribution tail (5 min): 1.95 % ID | biodistribution bladder (10 min): 0.09 % ID | biodistribution blood (10 min): 3.52 % ID | biodistribution caecum (10 min): 0.17 % ID | biodistribution colon (10 min): 0.21 % ID | biodistribution duodenum (10 min): 0.24 % ID | biodistribution heart (10 min): 0.08 % ID | biodistribution ileum (10 min): 0.18 % ID | biodistribution jejunum (10 min): 1.73 % ID | biodistribution lungs (10 min): 0.46 % ID | biodistribution ovaries (10 min): 0.03 % ID | biodistribution pancreas (10 min): 0.07 % ID | biodistribution salivary gl (10 min): 0.07 % ID | biodistribution stomach GL (10 min): 0.18 % ID | biodistribution stomach SQ (10 min): 0.10 % ID | biodistribution tail (10 min): 1.48 % ID | biodistribution bladder (30 min): 0.03 % ID | biodistribution blood (30 min): 0.78 % ID | biodistribution caecum (30 min): 0.06 % ID | biodistribution colon (30 min): 0.08 % ID | biodistribution duodenum (30 min): 0.06 % ID | biodistribution heart (30 min): 0.01 % ID | biodistribution ileum (30 min): 0.11 % ID | biodistribution jejunum (30 min): 2.99 % ID | biodistribution lungs (30 min): 0.12 % ID | biodistribution ovaries (30 min): 0.01 % ID | biodistribution pancreas (30 min): 0.02 % ID | biodistribution salivary gl (30 min): 0.01 % ID | biodistribution stomach GL (30 min): 0.04 % ID | biodistribution stomach SQ (30 min): 0.02 % ID | biodistribution tail (30 min): 1.06 % ID | biodistribution bladder (120 min): 0.01 % ID | biodistribution blood (120 min): 0.35 % ID | biodistribution bone (120 min): 0.42 % ID | biodistribution caecum (120 min): 0.88 % ID | biodistribution colon (120 min): 0.24 % ID | biodistribution duodenum (120 min): 0.02 % ID | biodistribution heart (120 min): 0.01 % ID | biodistribution ileum (120 min): 0.66 % ID | biodistribution jejunum (120 min): 0.85 % ID | biodistribution lungs (120 min): 0.04 % ID | biodistribution ovaries (120 min): 0.00 % ID | biodistribution pancreas (120 min): 0.01 % ID | biodistribution salivary gl (120 min): 0.01 % ID | biodistribution stomach GL (120 min): 0.03 % ID | biodistribution stomach SQ (120 min): 0.02 % ID | biodistribution tail (120 min): 0.10 % ID
